Measurements taken from ChEMBL document CHEMBL4888484, “Replenishing the malaria drug discovery pipeline: Screening and hit evaluation of the MMV Hit Generation Library 1 (HGL1) against asexual blood stage Plasmodium falciparum ,using a nano luciferase reporter read-out” (2022).
About 540 (0.36%) of roughly 150,000 compounds showed an effect of 50% or more. Some of the results follow.

Tested on: Plasmodium falciparum
Experiment: Primary screen in NF54 nanoGlo assay, in single point, at 2uM, 72h; a lower Z score goes with more inhibition
Type: functional, Erythrocyte
Details: timepoint 72 hour

| SMILES | % Inhibition | Z score |
| --- | --- | --- |
| COc1ccccc1OC1(C(=O)O)CCN(CC2CCCC2)CC1 | -8% | 1.16 |
| CS(=O)(=O)c1ccccc1CC(=O)Nc1nccc2sccc12 | -6% | 1.2 |
| C[C@H](NC(=O)c1cc2c(s1)CCCC2)c1ccccn1 | 3% | -0.51 |
| CCC(=O)Nc1cc(-c2cc3ccccc3n2CC)n[nH]1 | -14% | 1.66 |
| Cc1c(C(=O)NCc2cccnc2)c(C(F)(F)F)nn1C(C)C | -1% | 0.19 |
| CC[C@H]1CN(CCC(=O)N2CCc3[nH]ncc3C2)Cc2cc(OC)ccc2O1 | 0% | 0.02 |
| O=C1CC[C@@H](C(=O)NC(C2CC2)C2CC2)N1 | 32% | -3.63 |
| CCn1c(CN2CCC[C@H]2C(=O)O)nc2c(F)cccc21 | -5% | 0.58 |
| COCCc1nc(-c2ccccc2-n2cccn2)n(CC(C)(C)O)n1 | -14% | 2.41 |
| CCCN1CCC(NCc2ccc3c(c2)OCO3)CC1 | 1% | -0.14 |
| Cc1ccc2c(Nc3cccc(OC(F)(F)F)c3)c(C(=O)N3CCC[C@H](C)C3)cnc2n1 | -15% | 2.31 |
| Cc1nccc(N2CCC[C@@]3(CCC(=O)N(Cc4ccccn4)C3)C2)n1 | -1% | 0.1 |
| Cc1ccc(-c2cn(-c3ccc(C)cc3)c(NC(=O)CN(CC3CC3)C(=O)c3ccc(F)cc3)n2)cc1 | 8% | -0.92 |
| Cc1ccc(CN2CCN(Cc3c(C)nn(-c4ccc(F)cc4)c3C)C[C@@H]2CCO)o1 | 2% | -0.25 |
| CN(C(=O)Cc1cccs1)C1CCCCC1O (configuration not stated) | 6% | -0.84 |
| COC(C)(C)c1noc(CNC(=O)C(C)(C)C)n1 | -10% | 1.47 |
| CCOc1ccc(S(=O)(=O)Nc2ccc3c(c2)C(=O)N(C)c2ccccc2O3)cc1F | 7% | -0.76 |
| CC(=O)Nc1ccc(NS(=O)(=O)c2cccc(-n3cnnn3)c2)c(Cl)c1 | 0% | -0.01 |
| CS(=O)(=O)N1CCC(Cc2ccc(C(=O)NC3CCC3)cc2)CC1 | -18% | 2.2 |
| CCOC(=O)N1CCC(N(C)[C@H]2CCCN(CCCc3ccccc3)C2)CC1 | -4% | 0.46 |
| CO[C@@]1(C)C[C@@H](O)C12CCN(C(=O)COc1ccc(C)c(C)c1)CC2 | -12% | 1.78 |

| SMILES | % Inhibition | Z score |
| --- | --- | --- |
| Cc1cccc(NC(=O)N2CCC(c3nc4ccccc4s3)CC2)c1 | -7% | 1.04 |
| COC(=O)CC[C@H]1NC(=O)N(c2ccc(-c3nccs3)cc2)C1=O | -7% | 1.03 |
| CCOC1(C(=O)NC[C@@]2(COC)OCCc3ccccc32)CCCC1 | -1% | 0.18 |
| CO[C@H]1CN(C(=O)c2ccc(-c3cn(-c4ccccc4)cn3)cc2)CC[C@H]1N | 15% | -2.03 |
| COc1ccc(-c2nnc(COc3ccc4ccccc4c3)o2)cc1OC | -3% | 0.41 |
| Cc1c(NC(=O)C2CC(C)(O)C2)cnn1CCC(C)C (configuration not stated) | 10% | -0.97 |
| Cc1noc2ncnc(NCCCN(C)Cc3ccccc3)c12 | 0% | 0.05 |
| O=C(c1cc(F)c(Cl)cc1F)N1CCN[C@H](c2cccnc2)C1 | -14% | 1.33 |
| Cc1ccc(OCC[C@H]2CCN(C(=O)CC3CCCC3)C2)cc1 | -11% | 2.12 |
| COc1ccc(OC)c(CNC(=O)C[C@H]2c3ncccc3C(=O)N2c2ccc(C)cc2)c1 | -3% | 0.48 |
| CC(C)(C)OC(=O)N1C[C@H](C(=O)O)C[C@H](c2ccccc2)C1 | 5% | -0.81 |
| O=C(N[C@H]1C[C@H](c2cc(=O)[nH]cn2)C1)c1ccc2c(c1)OCO2 | -15% | 1.98 |
| CN(Cc1cnnn1C)c1ccccc1F | -7% | 0.87 |
| COc1ccc2c(c1)OC(C)(C)CN(C(=O)Nc1cnc(C)nc1)C2 | 0% | -0.03 |
| COCCN1CC2(CCC1=O)CCN(C(=O)CCn1cc(C)cn1)CC2 | 3% | -0.36 |
| COc1cc(N2CC[C@H]3[C@H](CCC(=O)N3CCc3cccs3)C2)ncn1 | 9% | -1.22 |
| CCC=C(C)C(=O)N1CCC(CC(N)=O)CC1 | -10% | 0.93 |
| Cc1c[nH]c(CN2CCC[C@@](C#N)(c3ccccn3)C2)n1 | -3% | 0.53 |
| Cn1ccnc1[C@H]1N(S(=O)(=O)c2cccc(N)c2)CC1(C)C | -5% | 0.54 |
| Cc1onc(-c2ccccc2Cl)c1C(=O)N1CC(c2nc(-c3ccncc3)no2)C1 | -10% | 1.51 |
